# The list shows a part of the results. Most values come without repeats; read them as rough.
# Columns and labels:
# Experiment in all cases: cell count relative to DMSO control; melanoma cells; higher = more viable cells
# Conditions in all cases: library dose: low library concentration; 72 h
# COLO792 = system: COLO792
# COLO800 = system: COLO800
# COLO829 = system: COLO829
# G361 = system: G361
# IPC-298 = system: IPC-298
# IST-MEL1 = system: IST-MEL1
# LB2518-MEL = system: LB2518-MEL
# LOXIMVI = system: LOXIMVI
# MEL-HO = system: MEL-HO
# 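Note: cell number obtained by counting DAPI-stained nuclei in high-throughput microscope images with image analysis software, screen run in 1,536-well plates.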
SMILES,cell count (COLO792) [%],cell count (COLO800) [%],cell count (COLO829) [%],cell count (G361) [%],cell count (IPC-298) [%],cell count (IST-MEL1) [%],cell count (LB2518-MEL) [%],cell count (LOXIMVI) [%],cell count (MEL-HO) [%]
"CC[C@]1(O)C[C@H]2CN(CCc3c([nH]c4ccccc34)[C@@](C(=O)OC)(c3cc4c(cc3OC)N(C=O)[C@H]3[C@@](O)(C(=O)OC)[C@H](OC(C)=O)[C@]5(CC)C=CCN6CC[C@]43[C@@H]65)C2)C1 [vincristine] + COc1ccc(COc2ccc(Cc3cnc(N)nc3N)cc2OC)cc1 [GW2580] (first compound 0.0001 µM, partner dose 1 µM)",97.8,92.5,91.7,98,107,88.6,118,121,96.2
"N#CC[C@H](C1CCCC1)n1cc(-c2ncnc3[nH]ccc23)cn1 [ruxolitinib] + C[C@@H]1CCN(C(=O)CC#N)C[C@@H]1N(C)c1ncnc2[nH]ccc12 [CP690550] (first compound 1 µM, partner dose 1 µM)",99.8,136,109,111,109,106,129,154,111
"Cc1cc(Nc2cc(N3CCN(C)CC3)nc(Sc3ccc(NC(=O)C4CC4)cc3)n2)n[nH]1 [Tozasertib] + COc1ccc2c(c1)CCC1C2CCC2(C)C(NCCCCCCN3C(=O)C=CC3=O)CCC12 [U73122] (first compound 0.006 µM, partner dose 0.4 µM)",95.6,77,79.5,98.6,102,114,100,113,89.5
"N#CC[C@H](C1CCCC1)n1cc(-c2ncnc3[nH]ccc23)cn1 [ruxolitinib] + O=C(CCCCCCC(=O)Nc1ccccc1)NO [vorinostat] (first compound 1 µM, partner dose 0.08 µM)",98.2,187,118,106,107,96,125,117,92.4
"Cc1cc(Nc2cc(N3CCN(C)CC3)nc(Sc3ccc(NC(=O)C4CC4)cc3)n2)n[nH]1 [Tozasertib] + c1cc(-c2cnn3cc(-c4ccc(OCCN5CCCCC5)cc4)cnc23)ccn1 [Dorsomorphin] (first compound 0.006 µM, partner dose 0.4 µM)",86.9,85.3,90.6,109,101,104,84,78.4,102
"Cc1cc(Nc2cc(N3CCN(C)CC3)nc(Sc3ccc(NC(=O)C4CC4)cc3)n2)n[nH]1 [Tozasertib] + COc1cc2ncnc(Nc3ccc(Oc4ccccc4)cc3)c2cc1OC [SrcI1] (first compound 0.006 µM, partner dose 2 µM)",80.7,139,98.3,103,90.4,91.9,118,120,101
"CC[C@]1(O)C[C@H]2CN(CCc3c([nH]c4ccccc34)[C@@](C(=O)OC)(c3cc4c(cc3OC)N(C=O)[C@H]3[C@@](O)(C(=O)OC)[C@H](OC(C)=O)[C@]5(CC)C=CCN6CC[C@]43[C@@H]65)C2)C1 [vincristine] + CO[C@@H]1[C@H](N(C)C(=O)c2ccccc2)C[C@H]2O[C@]1(C)n1c3ccccc3c3c4c(c5c6ccccc6n2c5c31)C(=O)NC4 [Midostaurin] (first compound 0.0001 µM, partner dose 0.08 µM)",88.9,156,78,84.8,94.1,101,91.3,86.4,94
"CC[C@]1(O)C[C@H]2CN(CCc3c([nH]c4ccccc34)[C@@](C(=O)OC)(c3cc4c(cc3OC)N(C=O)[C@H]3[C@@](O)(C(=O)OC)[C@H](OC(C)=O)[C@]5(CC)C=CCN6CC[C@]43[C@@H]65)C2)C1 [vincristine] + COc1ccc2c(c1)CCC1C2CCC2(C)C(NCCCCCCN3C(=O)C=CC3=O)CCC12 [U73122] (first compound 0.0001 µM, partner dose 0.4 µM)",112,92.7,114,107,101,96.2,92,97.1,113
"Cc1cc(Nc2cc(N3CCN(C)CC3)nc(Sc3ccc(NC(=O)C4CC4)cc3)n2)n[nH]1 [Tozasertib] + COc1ccc(COc2ccc(Cc3cnc(N)nc3N)cc2OC)cc1 [GW2580] (first compound 0.006 µM, partner dose 1 µM)",98.4,173,115,99,98.8,106,90.2,78.5,95.1
"CC[C@]1(O)C[C@H]2CN(CCc3c([nH]c4ccccc34)[C@@](C(=O)OC)(c3cc4c(cc3OC)N(C=O)[C@H]3[C@@](O)(C(=O)OC)[C@H](OC(C)=O)[C@]5(CC)C=CCN6CC[C@]43[C@@H]65)C2)C1 [vincristine] + CCCCCCCCCCCC1=C(O)C(=O)C=C(O)C1=O [Embelin] (first compound 0.0001 µM, partner dose 1.2 µM)",98.5,76.2,71.9,102,101,109,99.9,73.9,105
"CC[C@]1(O)C[C@H]2CN(CCc3c([nH]c4ccccc34)[C@@](C(=O)OC)(c3cc4c(cc3OC)N(C=O)[C@H]3[C@@](O)(C(=O)OC)[C@H](OC(C)=O)[C@]5(CC)C=CCN6CC[C@]43[C@@H]65)C2)C1 [vincristine] + O=C(Nc1cccc(Cl)c1)Nc1ncc(CCNc2ncnc3ccsc23)s1 [SNS314] (first compound 0.0001 µM, partner dose 0.0008 µM)",108,69.8,94.9,92.5,97.9,89,75.8,125,91
"Cc1cc(Nc2cc(N3CCN(C)CC3)nc(Sc3ccc(NC(=O)C4CC4)cc3)n2)n[nH]1 [Tozasertib] + CCN(CC)CCCCNc1ncc2cc(-c3cc(OC)cc(OC)c3)c(NC(=O)NC(C)(C)C)nc2n1 [PD173074] (first compound 0.006 µM, partner dose 0.1 µM)",96.6,94.2,93.7,101,94.5,98.3,44.3,74,87.8
"CC[C@]1(O)C[C@H]2CN(CCc3c([nH]c4ccccc34)[C@@](C(=O)OC)(c3cc4c(cc3OC)N(C=O)[C@H]3[C@@](O)(C(=O)OC)[C@H](OC(C)=O)[C@]5(CC)C=CCN6CC[C@]43[C@@H]65)C2)C1 [vincristine] + CN(NC(=O)CC(=O)NN(C)C(=S)c1ccccc1)C(=S)c1ccccc1 [STA4783] (first compound 0.0001 µM, partner dose 0.006 µM)",80.6,51.7,67,90.8,96.6,78.6,80.7,62.7,97.1
"CC[C@]1(O)C[C@H]2CN(CCc3c([nH]c4ccccc34)[C@@](C(=O)OC)(c3cc4c(cc3OC)N(C=O)[C@H]3[C@@](O)(C(=O)OC)[C@H](OC(C)=O)[C@]5(CC)C=CCN6CC[C@]43[C@@H]65)C2)C1 [vincristine] + CC(C)(C)c1cnc(CSc2cnc(NC(=O)C3CCNCC3)s2)o1 [SNS-032] (first compound 0.0001 µM, partner dose 0.01 µM)",90.4,91.7,99.7,116,109,89.1,78.3,38.6,104
"N#CC[C@H](C1CCCC1)n1cc(-c2ncnc3[nH]ccc23)cn1 [ruxolitinib] + Cc1ccc(NC(=O)c2cccc(N(C)C)c2)cc1NC(=O)c1ccc(O)cc1 [ZM336372] (first compound 1 µM, partner dose 2 µM)",104,150,122,101,87.3,89.1,91.6,107,102
"N#CC[C@H](C1CCCC1)n1cc(-c2ncnc3[nH]ccc23)cn1 [ruxolitinib] + COc1ccc2c(c1)CCC1C2CCC2(C)C(NCCCCCCN3C(=O)C=CC3=O)CCC12 [U73122] (first compound 1 µM, partner dose 0.4 µM)",98.8,127,82.6,94.9,99.5,93.7,114,111,88.9
"Cc1cc(Nc2cc(N3CCN(C)CC3)nc(Sc3ccc(NC(=O)C4CC4)cc3)n2)n[nH]1 [Tozasertib] + Oc1cc(-c2nc(-c3ccccc3)[nH]c2-c2ccncc2)ccc1Cl [L779450] (first compound 0.006 µM, partner dose 0.2 µM)",101,77.1,91.2,96.8,72.3,91.3,72.5,81.9,93
"Cc1cc(Nc2cc(N3CCN(C)CC3)nc(Sc3ccc(NC(=O)C4CC4)cc3)n2)n[nH]1 [Tozasertib] + NC(=O)Nc1cc(-c2cccc(F)c2)sc1C(=O)N[C@H]1CCCNC1 [AZD7762] (first compound 0.006 µM, partner dose 0.02 µM)",96,83.8,100,97.6,105,100,110,139,100
"CC[C@]1(O)C[C@H]2CN(CCc3c([nH]c4ccccc34)[C@@](C(=O)OC)(c3cc4c(cc3OC)N(C=O)[C@H]3[C@@](O)(C(=O)OC)[C@H](OC(C)=O)[C@]5(CC)C=CCN6CC[C@]43[C@@H]65)C2)C1 [vincristine] + COc1ccc(-c2ccc3c(N4CCOCC4)nc(N4C[C@@H](C)O[C@@H](C)C4)nc3n2)cc1CO [KU0063794] (first compound 0.0001 µM, partner dose 0.02 µM)",89.8,84.4,97.7,98.8,99.3,107,111,88.9,98.5
"CC[C@]1(O)C[C@H]2CN(CCc3c([nH]c4ccccc34)[C@@](C(=O)OC)(c3cc4c(cc3OC)N(C=O)[C@H]3[C@@](O)(C(=O)OC)[C@H](OC(C)=O)[C@]5(CC)C=CCN6CC[C@]43[C@@H]65)C2)C1 [vincristine] + Cc1cc(N2CCOCC2)cc2[nH]c(-c3c(NC[C@@H](O)c4cccc(Cl)c4)cc[nH]c3=O)nc12 [BMS536924] (first compound 0.0001 µM, partner dose 0.2 µM)",95.6,45.1,88.2,98,97.1,91.9,89.1,46.8,104
